Assay results reported in the supplement of paper PMC8047034.
Counter-ions that a name gives are not always drawn. The list shows a part of the results. Repeats are few or missing, and single values can be far off.

What was measured:
[1] = tested on: OVCAR4; test: log2 surviving fraction (library drug vs vehicle, or drug + carboplatin vs carboplatin alone; relative to plate median); ovarian cancer lines: OVCAR4 is platinum-sensitive and Ov4Carbo platinum-resistant; higher = more cell survival; details: library drug concentration 10 µM, 7 days
[2] = tested on: Ov4Carbo; test: as above; details: library drug concentration 10 µM, 7 days

Row | SMILES | log2 surviving fraction ([1]; carboplatin co-treatment 0 µM) | log2 surviving fraction ([1]; carboplatin co-treatment 5 µM) | log2 surviving fraction ([2]; carboplatin co-treatment 0 µM) | log2 surviving fraction ([2]; carboplatin co-treatment 5 µM)
1 | CO/N=C(\C(=O)N[C@@H]1C(=O)N2C(C(=O)O)=C(CSC(=O)c3ccco3)CS[C@H]12)c1csc(N)n1 [Ceftiofur hydrochloride] | -0.112 | 0.0419 | 0.129 | 0.336
2 | CC(=O)[C@H]1CC[C@H]2[C@@H]3CC=C4C[C@@H](O)CC[C@]4(C)[C@H]3CC[C@]12C [Pregnenolone] | 1.59 | 1.02 | 1.01 | 0.537
3 | CC/C(=C(/CC)c1ccc(O)cc1)c1ccc(O)cc1 [Diethylstilbestrol (Stilbestrol)] | -0.0533 | -0.00788 | 0.095 | -4.69
4 | C[C@@](Cc1ccc(O)c(O)c1)(NN)C(=O)O [Carbidopa] | 0.354 | -0.395 | 0.528 | 0.386
5 | CCCc1nc(C(C)(C)O)c(C(=O)OCc2oc(=O)oc2C)n1Cc1ccc(-c2ccccc2-c2nnn[nH]2)cc1 [Olmesartan medoxomil (Benicar)] | 1.19 | -0.141 | 0.954 | 0.29
6 | C[C@@H]1C[C@H]2[C@@H]3CCC4=CC(=O)C=C[C@]4(C)[C@@]3(Cl)[C@@H](O)C[C@]2(C)[C@@]1(OC(=O)c1ccco1)C(=O)CCl [Mometasone furoate] | -2.91 | -3.3 | -2.49 | -1.76
7 | CC(C)Cc1ccc(C(C)C(=O)O)cc1 (stereo unspecified) [Ibuprofen Lysine (NeoProfen)] | 0.846 | 1.04 | 0.25 | 0.0215
8 | COc1ccc2[nH]c([S@@+]([O-])Cc3ncc(C)c(OC)c3C)nc2c1 [Esomeprazole magnesium (Nexium)] | -0.000941 | -0.00714 | -0.0175 | -0.401
9 | c1ccc2c(c1)sc1ccccc12 [Dibenzothiophene] | 0.152 | -0.158 | -0.645 | -1.13
10 | Cc1c(NC(=O)c2cccnc2)c(=O)n(-c2ccccc2)n1C [Nifenazone] | -0.494 | 0.924 | 0.358 | 0.316
11 | CC(Oc1c(Cl)cccc1Cl)C1=NCCN1 (stereo unspecified) [Lofexidine  HCl] | -0.521 | 1.71 | -0.312 | 0.815
12 | CO[C@H]1O[C@@H]2O[C@@]3(C)CC[C@H]4[C@H](C)CC[C@@H]([C@H]1C)[C@@]24OO3 [Artemether (SM-224)] | -1.17 | -0.0348 | -0.273 | -0.501
13 | Cc1nnc(NS(=O)(=O)c2ccc(N)cc2)s1 [Sulfamethizole (Proklar)] | -0.00699 | -0.228 | -1.48 | 1.73
14 | CCCNCC(O)COc1ccccc1C(=O)CCc1ccccc1 (stereo unspecified) [Propafenone (Rytmonorm)] | -0.415 | -0.539 | -0.668 | -0.0783
15 | CC(C)C[C@H](NC(=O)[C@@H](O)[C@H](N)Cc1ccccc1)C(=O)O [Ubenimex (Bestatin)] | -0.00804 | -0.042 | -0.00306 | -0.051
16 | CCCc1nn(C)c2c(=O)[nH]c(-c3cc(S(=O)(=O)N4CCN(C)CC4)ccc3OCC)nc12 [Sildenafil citrate] | 0.181 | 1.24 | 1.43 | 0.307
17 | Cc1cc2c(cc1S(N)(=O)=O)S(=O)(=O)CCC2 [Meticrane] | 0.348 | 0.546 | 0.23 | -0.667
18 | CCOC(=O)c1ncn2c1CN(C)C(=O)c1cc(F)ccc1-2 [Flumazenil] | 1.06 | 0.512 | 0.104 | -0.423
19 | C[N+](C)(C)CCO.[Cl-] [Choline Chloride] | 0.66 | -0.387 | -1.18 | -0.367
20 | C[N+]1(C)CCCC(OC(=O)C(O)(c2ccccc2)c2ccccc2)C1 (stereo unspecified) [Mepenzolate Bromide] | 1 | 0.0772 | 0.369 | 0.935
21 | O=C([O-])C(O)[C@H](O)[C@@H](O)[C@H](O)[C@H](O)CO.O=C([O-])C(O)[C@H](O)[C@@H](O)[C@H](O)[C@H](O)CO.[Ca+2] (stereo partly specified) [Calcium Gluceptate] | 1.03 | 0.289 | -0.552 | 0.964
22 | OCC(CO)N[C@H]1C[C@](O)(CO)[C@@H](O)[C@H](O)[C@H]1O [Voglibose] | 1.07 | 0.433 | 0.642 | 0.525
23 | CC1=C(/C=C/C(C)=C/C=C/C(C)=C/C(=O)O)C(C)(C)CCC1 [Tretinoin (Aberela)] | -0.0128 | -0.339 | -1.1 | -0.487
24 | COc1ccc(CC2c3cc(OC)c(OC)cc3CC[N+]2(C)CCC(=O)OCCCCCOC(=O)CC[N+]2(C)CCc3cc(OC)c(OC)cc3C2Cc2ccc(OC)c(OC)c2)cc1OC (stereo unspecified) [Atracurium besylate] | -0.132 | -0.724 | -0.852 | -0.395
25 | CC(C)NCC(O)c1ccc(NS(C)(=O)=O)cc1 (stereo unspecified) [Sotalol (Betapace)] | -0.108 | -0.617 | 0.125 | 0.267
26 | O=C(O)c1ccc(-n2nc(-c3ccccc3O)nc2-c2ccccc2O)cc1 [Deferasirox (Exjade)] | -6.18 | -4.28 | -4.8 | -4.73
27 | CN(C)CCCN1c2ccccc2CCc2ccccc21 [Imipramine HCl] | -0.561 | -1.49 | -2 | -0.848

Row | SMILES | log2 surviving fraction ([1]; carboplatin co-treatment 0 µM) | log2 surviving fraction ([1]; carboplatin co-treatment 5 µM) | log2 surviving fraction ([2]; carboplatin co-treatment 0 µM) | log2 surviving fraction ([2]; carboplatin co-treatment 5 µM)
28 | Nc1ccn([C@H]2CC[C@@H](CO)O2)c(=O)n1 [Zalcitabine] | 0.122 | -0.159 | -0.776 | 0.218
29 | CC1Cc2ccccc2N1NC(=O)c1ccc(Cl)c(S(N)(=O)=O)c1 (stereo unspecified) [Indapamide (Lozol)] | -2.87 | -2.39 | 1.07 | 0.505
30 | COCCCOc1cc(C[C@@H](C[C@H](N)[C@@H](O)C[C@H](C(=O)NCC(C)(C)C(N)=O)C(C)C)C(C)C)ccc1OC [Aliskiren hemifumarate] | -0.434 | -0.975 | -0.736 | -0.594
31 | Cc1cnc(C(=O)NCCc2ccc(S(=O)(=O)NC(=O)NC3CCCCC3)cc2)cn1 [Glipizide (Glucotrol)] | -9.91 | -4.11 | -0.839 | 0.245
32 | NS(=O)(=O)c1cc2c(cc1Cl)N=CNS2(=O)=O [Chlorothiazide] | -2.5 | 1.03 | 0.806 | 0.0135
33 | CCOc1ccc2nc(S(N)(=O)=O)sc2c1 [Ethoxzolamide] | 0.91 | 0.993 | 1.94 | 1.06
34 | NCC(O)c1ccc(O)cc1 (racemic) [(+,-)-Octopamine HCl] | 0.41 | -0.0935 | -0.574 | -0.439
35 | COc1c(C)c2c(c(O)c1C/C=C(\C)CCC(=O)O)C(=O)OC2 [Mycophenolic (Mycophenolate)] | -4.88 | -4.31 | -5.33 | -5.17
36 | CCOC(=O)[C@H](CCc1ccccc1)N[C@H]1CS[C@H](c2cccs2)CN(CC(=O)O)C1=O [Temocapril HCl] | 0.155 | -0.244 | -0.385 | -0.0975
37 | CCN1CCN(C(=O)N[C@@H](C(=O)N[C@@H]2C(=O)N3C(C(=O)O)=C(CSc4nnnn4C)CS[C@H]23)c2ccc(O)cc2)C(=O)C1=O [Cefoperazone (Cefobid)] | 0.35 | -0.744 | 0.816 | 0.159
38 | NS(=O)(=O)c1cc2c(cc1Cl)NC(C(Cl)Cl)NS2(=O)=O (stereo unspecified) [Trichlormethiazide (Achletin)] | -0.177 | 0.617 | 1.75 | 0.511
39 | CCCC(C(=O)OCCN(CC)CC)(c1ccccc1)c1ccccc1 [Proadifen HCl] | -9.56 | -1.63 | -2.16 | -2.3
40 | CCOC(=O)C1=C(COCCN)NC(C)=C(C(=O)OC)C1c1ccccc1Cl (stereo unspecified) [Amlodipine besylate (Norvasc)] | -2.23 | -1.85 | -2.69 | -2.03
41 | CC(C)C[C@H](NC(=O)[C@H](CCc1ccccc1)NC(=O)CN1CCOCC1)C(=O)N[C@@H](Cc1ccccc1)C(=O)N[C@@H](CC(C)C)C(=O)[C@@]1(C)CO1 [Carfilzomib (PR-171)] | -8.18 | -7.96 | -7.31 | -7.85
42 | COc1ccc2c(c1)c(CC(=O)OCC(=O)O)c(C)n2C(=O)c1ccc(Cl)cc1 [Acemetacin (Emflex)] | -0.198 | -0.00139 | 0.493 | -0.157
43 | CCCCOc1ccc(CC(=O)NO)cc1 [Bufexamac] | -0.384 | -0.954 | -1.23 | -0.516
44 | CN1CCN(c2c(F)cc3c(=O)c(C(=O)O)cn4c3c2OCN4C)CC1 [Marbofloxacin] | 0.277 | 0.704 | 0.875 | 0.593
45 | Cc1[nH]c(=O)c(C#N)cc1-c1ccncc1 [Milrinone (Primacor)] | 0.33 | 0.346 | -0.294 | -0.262
46 | CCN(CC)CCNC(C(=O)OCCC(C)C)c1ccccc1 (stereo unspecified) [Camylofin Chlorhydrate] | -0.327 | -1.51 | -0.044 | -2.65
47 | C[C@]12CCC(=O)C=C1C=C[C@@H]1[C@@H]2CC[C@@]2(C)[C@H]1CC[C@@]2(O)CCC(=O)O [Potassium Canrenoate] | -4.04 | -0.52 | 0.226 | -0.495
48 | CCCCCCCCCCC[C@@H](C[C@@H]1OC(=O)[C@H]1CCCCCC)OC(=O)[C@H](CC(C)C)NC=O [Orlistat (Alli, Xenical)] | -0.335 | -0.636 | -1.04 | -0.572
49 | Cc1c(OCC(F)(F)F)ccnc1C[S+]([O-])c1nc2ccccc2[nH]1 (stereo unspecified) [Lansoprazole] | -0.351 | -0.497 | -1.26 | -1.81
50 | NS(=O)(=O)c1cc2c(cc1Cl)N=C(CSCc1ccccc1)NS2(=O)=O [Benzthiazide] | 1.05 | 0.485 | 1.71 | 1.44
51 | C[C@@H]1O[C@@H]1P(=O)(O)O [Fosfomycin Tromethamine] | -3.77 | -0.241 | -0.77 | -0.726
52 | CNNCc1ccc(C(=O)NC(C)C)cc1 [Procarbazine HCl (Matulane)] | -0.063 | 0.188 | -1.03 | -0.232
53 | CCC(C)(C)c1ccc(CC(C)CN2C[C@@H](C)O[C@@H](C)C2)cc1 (stereo partly specified) [Amorolfine Hydrochloride] | 0.278 | 0.619 | 0.0285 | 0.119
54 | CCCCCCCCCCCC[N+](C)(C)CCOc1ccccc1 [Domiphen Bromide] | -8.84 | -7.13 | -7.94 | -7.55
